The record followed here is patent publication US4504476A, “Method of administering calcium channel blocking agents” (priority 1983, dated 1985).

Experiment [1] addresses T1, cardiac sarcolemmal membranes (dihydropyridine binding site) (Canis lupus familiaris, UniProt A0A8I3QY31).
T1 construct: Membrane fractions of highly enriched in plasma membrane markers were prepared from dog ventricles; from tissue; host or cells: dog heart ventricle, membrane fraction enriched in plasma membrane (sarcolemma)
Put plainly: [3H] nimodipine specific binding to dog heart membranes. The note with it: for stimulation of [3H] nimodipine specific binding: 0.17 nM [3H] nimodipine, 15 min at 37° C., FIG. 2. As to the method:
FIG. 1--Membrane fractions of highly enriched in plasma membrane markers were prepared from dog ventricles according to Van Alstyne et al. 20-50 μg protein was incubated for 15 min at 37° C. in 1 ml medium containing 50 mM Tris-HCl (pH 7.4), different concentrations of [^3 H] nimodipine (160 Ci/mmol) and in the absence (O) or the presence of 10^-5 M diltiazem (Δ) or of 10^-6 M nimodipine (.quadrature.). The reaction was stopped by addition of 5 ml of ice-cold double-distilled water and filtration on Whatmann GF/F glass fiber filters. The filters were washed three times and the trapped radioactivity counted by liquid scintillation spectrometry. Specific binding was taken as the difference between control binding and the binding in the presence of unlabelled nimodipine (non-specific).
FIG. 2--Dog heart membranes were incubated for 15 min at 37° C. in the presence of 0.17 nM [^3 H] nimodipine, 50 mM Tris-HCl (pH 7.4) and the different concentrations of nifedipine (Δ), verapamil (X), d-cis-diltiazem (O), 1-cis-diltiazem ( ), thiazesim (.quadrature.) or clonazepam ( ). The specific binding was estimated as described in the legend to FIG. 1.
Incubation of 0° C. was carried out for 120 minutes. […] Each drug was tested on 4 different membrane preparations (means ±S.E.M.).

For experiment [2], the system named is retrogradely perfused rat hearts (Langendorff preparation). Put plainly: contractility (dP/dt) of retrogradely perfused rat hearts (Langendorff preparation). The settings on record: for IC50: Rattus norvegicus; for potentiation of the negative inotropic response of nimodipine: low concentration of diltiazem isomer (250 nM) perfused before nimodipine.
Where [3] appears, read: read-out: I50, negative inotropy (contractile force, dP/dt).

Molecules are shown by their SMILES. Structures can show the parent of a compound that is named as a salt. Where two headings read alike, the source gives them in different places.

T1 sequence (A0A8I3QY31 1-2188): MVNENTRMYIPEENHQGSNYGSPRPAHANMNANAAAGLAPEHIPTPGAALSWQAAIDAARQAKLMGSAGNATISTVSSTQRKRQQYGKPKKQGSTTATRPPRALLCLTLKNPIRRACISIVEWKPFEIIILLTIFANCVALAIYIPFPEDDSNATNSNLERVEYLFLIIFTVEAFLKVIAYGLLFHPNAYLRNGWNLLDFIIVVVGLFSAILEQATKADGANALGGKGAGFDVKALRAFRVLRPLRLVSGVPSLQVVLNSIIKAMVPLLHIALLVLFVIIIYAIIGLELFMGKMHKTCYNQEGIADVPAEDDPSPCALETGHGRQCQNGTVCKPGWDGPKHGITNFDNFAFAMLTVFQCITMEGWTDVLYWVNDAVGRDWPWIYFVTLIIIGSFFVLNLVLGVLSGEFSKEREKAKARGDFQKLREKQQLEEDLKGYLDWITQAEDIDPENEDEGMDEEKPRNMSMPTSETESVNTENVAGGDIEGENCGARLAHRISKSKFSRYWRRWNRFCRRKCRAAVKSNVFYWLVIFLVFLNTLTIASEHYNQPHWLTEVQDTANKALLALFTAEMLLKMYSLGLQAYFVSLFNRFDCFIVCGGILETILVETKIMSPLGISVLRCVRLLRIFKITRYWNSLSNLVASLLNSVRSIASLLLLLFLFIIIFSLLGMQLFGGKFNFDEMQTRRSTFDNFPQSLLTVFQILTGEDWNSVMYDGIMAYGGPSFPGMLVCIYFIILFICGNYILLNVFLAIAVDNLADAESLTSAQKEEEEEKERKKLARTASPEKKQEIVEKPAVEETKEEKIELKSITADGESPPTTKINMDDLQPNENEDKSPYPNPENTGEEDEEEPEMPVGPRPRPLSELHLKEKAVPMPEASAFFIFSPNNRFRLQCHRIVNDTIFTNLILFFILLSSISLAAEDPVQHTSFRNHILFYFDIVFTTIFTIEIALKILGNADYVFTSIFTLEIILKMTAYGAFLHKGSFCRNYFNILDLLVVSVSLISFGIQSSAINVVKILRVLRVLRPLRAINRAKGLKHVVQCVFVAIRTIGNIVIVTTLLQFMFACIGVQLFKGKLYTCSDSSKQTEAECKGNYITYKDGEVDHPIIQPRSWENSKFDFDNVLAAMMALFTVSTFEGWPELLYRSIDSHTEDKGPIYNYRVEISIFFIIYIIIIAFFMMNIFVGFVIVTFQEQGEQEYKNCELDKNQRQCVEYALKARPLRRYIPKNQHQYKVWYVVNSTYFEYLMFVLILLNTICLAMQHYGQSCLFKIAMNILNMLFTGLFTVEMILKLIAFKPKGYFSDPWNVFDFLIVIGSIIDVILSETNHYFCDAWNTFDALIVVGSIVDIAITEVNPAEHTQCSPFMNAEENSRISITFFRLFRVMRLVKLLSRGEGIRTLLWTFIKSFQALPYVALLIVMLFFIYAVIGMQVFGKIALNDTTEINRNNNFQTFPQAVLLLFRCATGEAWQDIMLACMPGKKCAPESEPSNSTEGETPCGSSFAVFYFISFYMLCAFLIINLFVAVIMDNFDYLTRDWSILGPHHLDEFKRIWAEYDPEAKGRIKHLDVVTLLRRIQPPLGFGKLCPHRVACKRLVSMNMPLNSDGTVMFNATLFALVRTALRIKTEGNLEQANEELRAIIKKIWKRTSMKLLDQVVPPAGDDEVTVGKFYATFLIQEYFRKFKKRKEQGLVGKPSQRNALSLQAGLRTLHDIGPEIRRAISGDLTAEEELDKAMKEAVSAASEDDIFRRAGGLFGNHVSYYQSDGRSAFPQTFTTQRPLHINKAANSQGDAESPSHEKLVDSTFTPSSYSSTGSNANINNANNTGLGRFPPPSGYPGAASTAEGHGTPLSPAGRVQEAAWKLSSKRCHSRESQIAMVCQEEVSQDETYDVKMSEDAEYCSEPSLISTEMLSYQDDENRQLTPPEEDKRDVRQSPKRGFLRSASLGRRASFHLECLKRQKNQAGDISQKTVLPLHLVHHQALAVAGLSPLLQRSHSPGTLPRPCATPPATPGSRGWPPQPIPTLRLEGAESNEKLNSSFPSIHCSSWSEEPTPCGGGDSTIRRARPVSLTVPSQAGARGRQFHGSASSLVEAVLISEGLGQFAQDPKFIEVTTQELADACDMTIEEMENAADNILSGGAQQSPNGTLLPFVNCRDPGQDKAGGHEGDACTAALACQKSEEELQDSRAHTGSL

As for `CN(C)CCN1C(=O)CC(c2ccccc2)Sc2ccccc21` (stereo not drawn) [thiazesim], in experiment [1], the “stimulation of [3H] nimodipine specific binding” value (“stimulation” for short) is “not produced”.
In the case of `COc1ccc([C@@H]2Sc3ccccc3N(CCN(C)C)C(=O)[C@@H]2OC(C)=O)cc1` [d-cis-diltiazem], the IC50 in experiment [2] (setting [3]) turned out to be 800 nM. Also, the “potentiation of the negative inotropic response of nimodipine” value in experiment [2] is given as “drastically potentiated”. Further, in experiment [1], the “stimulation” value is “produced”.
For `COc1ccc(C2Sc3ccccc3N(CCN(C)C)C(=O)C2OC(C)=O)cc1` (stereo not drawn) [diltiazem, 3-acetoxy-2,3-dihydro-5-[2-(dimethylamino)ethyl]-2-(p-methyoxyphenyl)-1,5-benzothiazepin-4(5H)-one hydrochloride], the “decrease in contractility by itself” value in experiment [2] (250 nM) is “only a slight decrease”. For the same compound, in experiment [2] (washout), the “reversibility of negative inotropic response” value is recorded as “fully reversible”, the “reversibility of potentiation of nimodipine response” value is reported as “reversible” and the “time for effects to be washed out” value is not above 30 min. Also, the “effect on non-specific binding of [3H] nimodipine” value in experiment [1] (10^-5 M diltiazem) is “without effect”. Further, in experiment [1] (10^-5 M diltiazem, Scatchard analysis, FIG. 1), the “effect on apparent number of [3H] nimodipine binding sites” value is “increasing the apparent number of binding sites”.
For the compound `COc1ccc([C@H]2Sc3ccccc3N(CCN(C)C)C(=O)[C@H]2OC(C)=O)cc1` [l-cis-diltiazem], the IC50 in experiment [2] (setting [3]) is more than 120000 nM. Further, the “potentiation of the negative inotropic response of nimodipine” value in experiment [2] is recorded as “ineffective”. The “stimulation” value in experiment [1] was “not produced”.
Turning to `COC(=O)C1=C(C)NC(C)=C(C(=O)OC)C1c1ccccc1[N+](=O)[O-]` [nifedipine], the “stimulation” value in experiment [1] is “not produced”.
Consider `COCCOC(=O)C1=C(C)NC(C)=C(C(=O)OC(C)C)C1c1cccc([N+](=O)[O-])c1` (stereo not drawn) [nimodipine, isopropyl-(2-methoxyethyl)-2,6-dimethyl-4-(3-nitrophenyl)-1,4-dihydropyridine-3,5-dicarboxylate], for which the IC50 came to 1100 nM in experiment [2] (setting [3]); 1100 nM in experiment [2] (read-out: I50 in hearts not treated with diltiazem); 33 nM in experiment [2] (read-out: I50 of nimodipine in the presence of d-cis-diltiazem); 730 nM in experiment [2] (read-out: I50 of nimodipine in the presence of l-cis-diltiazem); 33 nM in experiment [2] (read-out: observed I50 for nimodipine with diltiazem). Further, the Kd (usually the constant that tells how readily two partners part at equilibrium) in experiment [1] (cardiac membranes) came out at 0.2 nM.
For `O=C1CN=C(c2ccccc2Cl)c2cc([N+](=O)[O-])ccc2N1` [clonazepam], in experiment [1], the “stimulation” value is “not produced”.
